{"source": "PubChem BioAssay AID1768", "about": "(National Center for Advancing Translational Sciences (NCATS), 2009)", "note": "The campaign covered roughly 270,000 compounds. About 620 (0.23%) were called active. Inconclusive results, whose numbers are uncertain, are shown with a selection of clear calls. Calls come from the whole dose curve; as a rule, active = well fitted inhibition curve with a large enough effect in the polarisation, with a control signal flat (not every such curve was filed as active); inconclusive = small, poorly fitted or top-dose-only effect, or effect the other way, or a change in a side signal; inactive = no such curve, though single readings can be large or run the other way; the % refers to the polarisation. Potencies beside an inconclusive call are fits to weak or partial responses and may not hold up. “Side channel” marks fits to a control or component signal instead of the main read-out. Potency is the fitted concentration of half-maximal effect; tags give direction and shape of the fitted curve or compound fluorescence and quenching.", "data": [{"biological_target": "Menin (Homo sapiens) (UniProt O00255)", "sequence (O00255 whole entry, looked up)": "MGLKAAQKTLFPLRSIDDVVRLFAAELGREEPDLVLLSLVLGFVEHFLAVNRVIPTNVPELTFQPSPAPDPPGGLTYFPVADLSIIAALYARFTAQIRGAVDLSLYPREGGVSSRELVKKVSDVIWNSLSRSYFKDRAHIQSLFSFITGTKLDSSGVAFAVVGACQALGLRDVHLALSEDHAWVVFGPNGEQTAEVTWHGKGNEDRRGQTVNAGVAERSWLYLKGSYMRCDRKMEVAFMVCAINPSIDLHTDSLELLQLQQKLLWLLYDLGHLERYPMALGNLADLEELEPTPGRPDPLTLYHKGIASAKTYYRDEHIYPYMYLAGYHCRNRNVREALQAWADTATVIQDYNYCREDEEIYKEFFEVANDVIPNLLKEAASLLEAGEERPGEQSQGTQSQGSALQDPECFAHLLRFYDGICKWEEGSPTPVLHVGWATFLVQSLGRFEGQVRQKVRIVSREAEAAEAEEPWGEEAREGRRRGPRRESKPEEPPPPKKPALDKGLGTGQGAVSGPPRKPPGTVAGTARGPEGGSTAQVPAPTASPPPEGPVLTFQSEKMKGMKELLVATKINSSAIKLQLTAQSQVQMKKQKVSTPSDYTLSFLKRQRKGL", "assay": "qHTS Assay for Inhibitors Targeting the Menin-MLL Interaction in MLL Related Leukemias: Competition With Texas Red Labeled MLL-derived Mutant Peptide; for FP activity change, negative = inhibition: % of control where 0% means no effect", "conditions": "fluorescence polarization; FP activity change, negative = inhibition: at 61.6 µM (top of the series)", "values": [{"compound": "Cc1cccc(OCc2nnc(SCC(=O)Nc3sc(C)c(C)c3C#N)n2C)c1", "Potency": "inconclusive: 25.1 µM [fluorescent, side channel, partial curve]"}, {"compound": "CCOC(=O)N1CCN(C(=O)CNS(=O)(=O)c2cccs2)CC1", "FP activity change, negative = inhibition": "inactive: 14.5%"}, {"compound": "CCSc1nnc(NC(=O)CSc2nc3c(c(=O)n2CC)SC(C)C3)s1", "note": "(centres undefined)", "Potency": "inconclusive: 39.8 µM [fluorescent, single point]"}, {"compound": "COC(=O)c1cc(NC(=O)c2cccs2)ccc1N1CCOCC1", "Potency": "inconclusive: 22.4 µM [quencher, side channel, single point]"}, {"compound": "C/C(=N\\NS(=O)(=O)c1ccc([N+](=O)[O-])cc1)c1ccc(NC(=O)c2ccco2)cc1", "Potency": "inconclusive: 35.5 µM [quencher, side channel, single point]"}, {"compound": "CN(CCCS(=O)(=O)[O-])c1ccc(/C=C/c2ccc3ccccc3[n+]2C)cc1", "Potency": "inconclusive: 35.5 µM [fluorescent, side channel, partial curve]"}, {"compound": "CCOc1cc(-c2nnc(-c3ccco3)o2)cc(OCC)c1OCC", "FP activity change, negative = inhibition": "inactive: -2.27%"}, {"compound": "O=C(Nc1ccnn1C1CCN(CC2CC=CCC2)CC1)c1ccccc1Cl", "note": "(centres undefined)", "Potency": "inconclusive: 35.5 µM [quencher, side channel, partial curve]"}, {"compound": "Cc1cc(C(=O)COC(=O)c2cc(O)c3ccccc3c2O)c(C)n1CC1CCCO1", "note": "(centres undefined)", "Potency": "inconclusive: 22.4 µM [quencher, side channel, partial curve]"}, {"compound": "COC(=O)c1cc2n(n1)CCN(Cc1ccc(F)cc1)C2=O", "Potency": "inconclusive: 15.8 µM [inhibitor, partial curve]"}, {"compound": "CCOC(=O)c1ccccc1-n1c(C)cc(C2N=C(N)Nc3nc4ccccc4n32)c1C", "note": "(centres undefined)", "Potency": "inconclusive: 7.08 µM [fluorescent, side channel, partial curve]"}, {"compound": "CCOC(=O)c1c(N2CCCCC2)c2ccccc2[nH]c1=O", "Potency": "inconclusive: 22.4 µM [inhibitor, partial curve]"}, {"compound": "C/C(=N\\Nc1ccc(S(=O)(=O)Nc2ccc(Cl)cc2)cc1[N+](=O)[O-])c1ccc(N2CCOCC2)cc1", "Potency": "inconclusive: 17.8 µM [quencher, side channel, partial curve]"}, {"compound": "N#Cc1ccc(-c2ccc(OCC(=O)NCC(=O)Nc3ccc(F)c(F)c3F)cc2)cc1", "Potency": "inconclusive: 35.5 µM [fluorescent, side channel, single point]"}, {"compound": "Cc1ccc2oc(C(=O)NCc3ccc(S(N)(=O)=O)cc3)cc(=O)c2c1", "Potency": "inconclusive: 39.8 µM [fluorescent, side channel, single point]"}, {"compound": "C#CCCCO/N=C1/C[C@@H](O)[C@@H](O)[C@@H]2[C@@H]3C(=O)N(CCC(=O)OCC)C(=O)[C@H]3CC[C@@H]12", "FP activity change, negative = inhibition": "inactive: -3.03% [at 11.7 µM]"}, {"compound": "Cc1ccc(-c2cc(C(=O)NCc3ccco3)c3ccccc3n2)o1", "Potency": "inconclusive: 28.2 µM [quencher, side channel, single point]"}, {"compound": "COC(=O)C1CN(C(=O)C(C)Oc2ccc(C(C)C)cc2)c2ccccc2O1", "note": "(centres undefined)", "Potency": "inconclusive: 22.4 µM [fluorescent, side channel, single point]"}, {"compound": "Nc1nc(/C=C/c2ccc(F)cc2)nc(-c2ccccc2O)n1", "Potency": "inconclusive: 22.4 µM [quencher, side channel, partial curve]"}, {"compound": "COCCNC(=O)c1ccc(CS(=O)(=O)c2ccccc2C)o1", "Potency": "inconclusive: 50.1 µM [inhibitor, partial curve, poor fit]"}, {"compound": "Cn1cccc1Cc1nnc(SCC(=O)N2CCCCCC2)n1-c1ccc(F)cc1", "Potency": "inconclusive: 7.94 µM [fluorescent, side channel, partial curve]"}, {"compound": "Cc1cc(C)cc(N(C(=O)c2snc(C(N)=O)c2N)C(C(=O)NCC2CCCO2)c2ccc(C)o2)c1", "note": "(centres undefined)", "Potency": "inconclusive: 17.8 µM [fluorescent, side channel, single point]"}, {"compound": "CCN(CC)c1ccc(C=Nc2ccc(C#N)cc2)c(O)c1", "Potency": "inconclusive: 3.98 µM [quencher, side channel, single point]"}, {"compound": "CCC(=O)Nc1ccc(NCc2ccc(-c3ccccc3)cc2)cc1", "Potency": "inconclusive: 39.8 µM [quencher, side channel, single point]"}, {"compound": "N#C/C(=C/c1ccc(-c2ccc(S(N)(=O)=O)cc2)o1)c1nc2ccccc2s1", "Potency": "inconclusive: 39.8 µM [inhibitor, single point]"}, {"compound": "CC(=O)N1CCCN(Cc2cn(-c3ccc(C)cc3)nc2-c2cccc(C)c2)CC1", "Potency": "inconclusive: 5.62 µM [fluorescent, side channel, full curve]"}, {"compound": "O=C(NCCc1c[nH]c2ccccc12)c1ccccc1O", "Potency": "inconclusive: 17.8 µM [quencher, side channel, single point]"}, {"compound": "Cc1ccccc1Nc1nc(-c2sc(NC(=O)c3cccc(Cl)c3)nc2C)cs1", "Potency": "inconclusive: 3.98 µM [quencher, side channel, full curve]"}, {"compound": "CCCCc1ccc(NC(=S)Nc2ccc(Nc3ccc(OC)cc3)cc2)cc1", "Potency": "inconclusive: 5.01 µM [quencher, side channel, full curve, poor fit]"}, {"compound": "O=C(OCC(=O)c1ccc(Cl)s1)c1ccc2ccccc2n1", "Potency": "inconclusive: 22.4 µM [quencher, side channel, single point]"}, {"compound": "Cc1cccc(-n2c(O)c(C=Nc3cc(O)ccc3C)c3ccccc3c2=O)n1", "Potency": "inconclusive: 22.4 µM [quencher, side channel, partial curve]"}, {"compound": "Cc1ccc(CNc2cnn(C34CC5CC(CC(C5)C3)C4)c(=O)c2Cl)cc1", "Potency": "inconclusive: 2.82 µM [fluorescent, side channel, single point]"}, {"compound": "CCn1ncc(Br)c1C(=O)Nc1cc(C(=O)OC)ccc1C(=O)OC", "Potency": "inconclusive: 39.8 µM [inhibitor, single point]"}, {"compound": "O=C(CSc1nccn1-c1ccc(Cl)cc1)N1CCCc2ccccc21", "Potency": "inconclusive: 39.8 µM [fluorescent, side channel, partial curve]"}]}]}
